# Lines with a small IC50 respond at low doses; where the fit passes the top or lowest dose, that dose stands as a limit. AUC is the area under the same curve over the 256-fold range up to the top dose, as a fraction; it is 1 without any effect and falls as sensitivity rises. For part of these data: The top dose, if marked as inferred, comes from the curve model; the source does not state it.
# Legend:
# Test in all cases: Viability of human cancer cell lines after 72 h of drug (GDSC screen)
# EHT 1864 = compound: O=c1cc(CN2CCOCC2)occ1OCCCCCSc1ccnc2cc(C(F)(F)F)ccc12 [EHT 1864]; conditions: top dose 10 µM; top dose inferred
# Description: (§1)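 Human cancer cell lines in 384-well plates, medium with 10% serum, drug for 72 h over a 256-fold dose range (nine 2-fold or five 4-fold steps up to the top dose). Adherent lines were fixed and stained with the nucleic acid dye Syto60, suspension lines read with resazurin; signal relative to control wells, capped at 0 and 100%. One two-parameter sigmoid per drug and line, fitted in a mixed model over all curves with the slope shared within a line.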
# Vinorelbine = compound: CCC1=C[C@@H]2CN(C1)Cc1c([nH]c3ccccc13)[C@@](C(=O)OC)(c1cc3c(cc1OC)N(C)[C@H]1[C@@](O)(C(=O)OC)[C@H](OC(C)=O)[C@]4(CC)C=CCN5CC[C@]31[C@@H]54)C2 [Vinorelbine]; conditions: top dose 0.064 µM; top dose inferred
# Description: as §1
# Erlotinib = compound: C#Cc1cccc(Nc2ncnc3cc(OCCOC)c(OCCOC)cc23)c1 [Erlotinib]; conditions: top dose 2 µM
# Description: as §1
# Gefitinib = compound: COc1cc2ncnc(Nc3ccc(F)c(Cl)c3)c2cc1OCCCN1CCOCC1 [Gefitinib]; conditions: top dose 0.5 µM
# Description: as §1
# Phenformin = compound: N=C(N)NC(=N)NCCc1ccccc1 [Phenformin]; conditions: top dose 4000 µM; top dose inferred
# Description: as §1
# WHI-P97 = compound: COc1cc2ncnc(Nc3cc(Br)c(O)c(Br)c3)c2cc1OC [WHI-P97]; conditions: top dose 10.24 µM; top dose inferred
# Description: as §1
# AG-014699 = compound: CNCc1ccc(-c2[nH]c3cc(F)cc4c3c2CCNC4=O)cc1 [AG-014699]; conditions: top dose 5 µM; top dose inferred
# Description: as §1
# NU-7441 = compound: O=c1cc(N2CCOCC2)oc2c(-c3cccc4c3sc3ccccc34)cccc12 [NU-7441]; conditions: top dose 2 µM; top dose inferred
# Description: as §1
# S-Trityl-L-cysteine = compound: N[C@@H](CSC(c1ccccc1)(c1ccccc1)c1ccccc1)C(=O)O [S-Trityl-L-cysteine]; conditions: top dose 5.12 µM; top dose inferred
# Description: as §1
# XL-184 = compound: COc1cc2nccc(Oc3ccc(NC(=O)C4(C(=O)Nc5ccc(F)cc5)CC4)cc3)c2cc1OC [XL-184]; conditions: top dose 5.12 µM; top dose inferred
# Description: as §1
# QL-XI-92 = compound: C=CC(=O)Nc1cc(NC(=O)c2ccc(C)c(NC(=O)c3ccno3)c2)cc(C(F)(F)F)c1 [QL-XI-92]; conditions: top dose 10.24 µM; top dose inferred
# Description: as §1
Cell Line,AUC (EHT 1864),IC50 (EHT 1864) [µM],AUC (Vinorelbine),IC50 (Vinorelbine) [nM],AUC (Erlotinib),IC50 (Erlotinib) [nM],AUC (Gefitinib),IC50 (Gefitinib) [nM],AUC (Phenformin),IC50 (Phenformin) [µM],AUC (WHI-P97),IC50 (WHI-P97) [µM],AUC (AG-014699),IC50 (AG-014699) [µM],AUC (NU-7441),IC50 (NU-7441) [nM],AUC (S-Trityl-L-cysteine),IC50 (S-Trityl-L-cysteine) [µM],AUC (XL-184),IC50 (XL-184) [µM],AUC (QL-XI-92),IC50 (QL-XI-92) [µM]
"L-1236 (Hodgkin lymphoma, suspension)",0.992,> 10,0.978,> 64,0.99,> 2000,0.978,> 500,0.72,931,0.99,> 10.2,0.992,> 5,0.985,> 2000,0.96,> 5.12,0.979,> 5.12,0.987,> 10.2
"LAMA-84 (chronic myeloid leukaemia, suspension)",0.91,> 10,0.822,38.1,0.962,> 2000,0.959,> 500,0.622,544,0.969,> 10.2,0.986,> 5,0.897,> 2000,0.824,3.1,0.531,0.388,0.614,1.32
"LB771-HNC (head and neck, adherent)",0.877,> 10,0.594,7.71,0.897,> 2000,0.891,> 500,0.734,1400,0.968,> 10.2,0.982,> 5,0.975,> 2000,0.769,2.43,0.917,> 5.12,0.975,> 10.2
"LB831-BLC (bladder, adherent)",0.966,> 10,0.773,25.4,0.962,> 2000,0.969,> 500,0.959,> 4000,0.98,> 10.2,0.986,> 5,0.982,> 2000,0.918,> 5.12,0.977,> 5.12,0.949,> 10.2
"LB1047-RCC (kidney, adherent)",0.976,> 10,0.887,> 64,0.889,> 2000,0.86,> 500,0.753,1490,0.948,> 10.2,0.956,> 5,0.912,> 2000,0.841,4.22,0.827,3.69,0.911,> 10.2
"LS-513 (large intestine, adherent)",0.981,> 10,0.945,> 64,0.777,838,0.954,> 500,0.567,385,0.98,> 10.2,0.949,> 5,0.975,> 2000,0.852,4.19,0.914,> 5.12,0.951,> 10.2
"LU-65 (large cell lung carcinoma, suspension)",0.932,> 10,0.792,35,0.935,> 2000,0.987,> 500,0.69,949,0.92,> 10.2,0.987,> 5,0.987,> 2000,0.894,> 5.12,0.89,> 5.12,0.977,> 10.2
"LU-134-A (small cell lung carcinoma, suspension)",0.986,> 10,0.808,35.7,0.987,> 2000,0.983,> 500,0.762,1520,0.987,> 10.2,0.905,> 5,0.977,> 2000,0.858,4.66,0.95,> 5.12,0.901,> 10.2
"MEG-01 (chronic myeloid leukaemia, suspension)",0.982,> 10,0.767,22.4,0.96,> 2000,0.984,> 500,0.528,296,0.948,> 10.2,0.988,> 5,0.988,> 2000,0.766,1.78,0.636,0.744,0.73,2.76
"MLMA (hairy cell leukaemia, semi-adherent)",0.919,> 10,0.728,18,0.98,> 2000,0.963,> 500,0.549,341,0.928,> 10.2,0.979,> 5,0.926,> 2000,0.857,4.22,0.832,3.32,0.746,3.26
"MRK-nu-1 (breast, suspension)",0.945,> 10,0.51,4.25,0.987,> 2000,0.99,> 500,0.589,429,0.983,> 10.2,0.99,> 5,0.99,> 2000,0.568,0.482,0.97,> 5.12,0.99,> 10.2
"NAMALWA (Burkitt lymphoma, suspension)",0.987,> 10,0.641,9.17,0.987,> 2000,0.988,> 500,0.382,126,0.991,> 10.2,0.991,> 5,0.98,> 2000,0.557,0.445,0.944,> 5.12,0.878,7.62
